Results reported in PubChem BioAssay AID493208 (National Center for Advancing Translational Sciences (NCATS), 2011).
About 340 (0.77%) of roughly 44,000 compounds were called active. Not shown: some 5% with an inconclusive outcome. The call rests on the fitted dose curve; in most records, active means well fitted inhibition curve with a large enough effect; inconclusive means small, poorly fitted or top-dose-only effect; inactive means flat fitted curve, though single readings scatter. The list shows a part of the results.

experiment: Acumen qHTS Assay for Inhibitors of the mTORC1 Signaling Pathway in MEF (Tsc2-/-, p53-/-) Cells: Sytravon; conditions: phospho-rpS6 immunofluorescence/PI, 24 h; series mostly up to 38.3 µM; activity change, negative = inhibition: at the top concentration;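 further: plate controls were DMSO for no effect and rapamycin for full effect; nearly all actives have a fitted effect of over 50% in size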
Method in brief: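 Tsc2-/-, p53-/- MEFs (empty-vector stable line) in DMEM + 10% FBS were treated with compounds 24 h at 37 degree Celsius, fixed, and immunostained for phospho-rpS6 (Alexa-488) with propidium iodide counterstain. Laser-scanning cytometry gave % positive cells, normalized against 7.5 nM rapamycin and DMSO.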

SMILES	activity change, negative = inhibition
CCOc1ccc(CCNC(=O)c2cnc3sc(N(CC)CC)nn3c2=O)cc1OCC	inactive: -0.971%
COC(=O)c1c(NC(=O)c2cc3ccccc3c(=O)o2)sc2c1CCCC2	inactive: -12.6%
COc1ccc(CCNC(=O)c2ccc(Nc3nc4ccccc4n4nnnc34)cc2)cc1OC	inactive: -0.876%
CC(=O)c1cccc(NC(=O)C(C)n2c(=O)cc(C)c3c(C)nn(-c4ccccc4)c32)c1 (stereo not given)	inactive: 0%
COc1ccc(NC(=O)Cn2nnc(C(=O)NCCc3ccccc3)c2N)cc1	inactive: 1.82%
COc1ccccc1NC(=O)N(Cc1nnc2n1CCCCC2)c1ccc(F)cc1	inactive: 3.87%
COc1ccc(OC)c(CNS(=O)(=O)c2ccc3c(c2)CCCN3C(C)=O)c1	inactive: 0.594%
O=C(NCCc1ccccc1)c1ccc2c(c1)N(Cc1ccc(F)cc1)C(=O)c1ccccc1S2(=O)=O	inactive: -1.8%
CC(C)c1ccc(NC(=O)c2cc3sc(Cl)cc3n2C)cc1	inactive: -9.04%
Cc1cc(C)cc(NC(=O)N2CCC3(CC2)Oc2ccccc2C(=O)N3Cc2ccccc2F)c1	inactive: -1.53%
O=C(CCS(=O)(=O)c1cccc2nonc12)Nc1c(F)cccc1F	inactive: 2.71%
CC1CCc2c(sc3nc(-c4cc5cc(Br)ccc5oc4=O)[nH]c(=O)c23)C1 (stereo not given)	inactive: -25.5%
CCOc1ccc(NC(=O)c2c(NCc3cccnc3)sc3c2CCCC3)cc1	inactive: -5.9%
COc1ccc(Br)c(C(=O)Nc2cc3c(cc2N2CCOCC2)n(C)c(=O)n3C)c1	inactive: -1.19%
O=S(=O)(Nc1ccc(Br)cc1F)c1ccc2nc(-c3ccccc3)[nH]c2c1	inactive: 0.676%
COc1cccc(N2CCN(C(=O)c3cccc(-n4c(C)nc5cccnc54)c3)CC2)c1	inactive: -11.4%
CCOC(=O)c1ccc(CN(Cc2ccc(F)cc2)S(=O)(=O)c2ccc(F)c(C(=O)Nc3ccc(Cl)cc3F)c2)cc1	inactive: 4.01%
COc1ccc(CCn2c(=O)c3cccnc3n(CC(=O)Nc3ccc(C)c(F)c3)c2=O)cc1OC	inactive: -10.6%
C=Cc1ccc(Cn2c(C(=O)O)c(CNC3CCCCC3)c3ccc(C)cc32)cc1	inactive: -0.998%
COc1ccc(-c2nnc(SCC(=O)Nc3cccc(C(F)(F)F)c3)nc2-c2ccc(OC)cc2)cc1	inactive: 1.19%
CN1C(=O)Cc2cc(S(=O)(=O)N3CCN(c4ccc(Cl)cc4)CC3)ccc21	inactive: -5.68%
CCOC(=O)c1[nH]c2c(c1Cc1ccccc1C)C(=O)CC(c1cc(OC)ccc1OC)C2 (stereo not given)	inactive: -19%
O=C(COc1ccccc1)NCCc1csc(-c2ccc(Cl)cc2)n1	inactive: 3.51%
COc1cccc(Cn2c(CNS(=O)(=O)c3ccc(F)c(Cl)c3)nc3cccnc32)c1	inactive: -4.03%

SMILES	activity change, negative = inhibition
O=C(c1ccc2c(c1)OCCO2)N(Cc1cccnc1)c1nc2c(Cl)cccc2s1	inactive: 0%
CCOc1ccc(OCC)c(NC(=O)C2CCN(S(=O)(=O)c3c(C)noc3/C=C/c3ccccc3F)CC2)c1	inactive: -12.2%
CC(C)COc1ccc(C(=O)Nc2cc3nn(-c4ccccc4)nc3cc2Cl)cc1	inactive: -1.29%
CCc1nn2c(=O)cc(COc3ccc(/C=C(\C#N)C(=O)Nc4ccc(F)cc4)cc3OC)nc2s1	inactive: -20%
O=S(=O)(NCC(c1cccs1)S(=O)(=O)c1ccccc1)c1ccc(F)cc1 (stereo not given)	inactive: -2.01%
CCOC(=O)c1ccc(NC(=O)C2CCN(S(=O)(=O)c3ccc4c(c3)CCCC(=O)N4)CC2)cc1	inactive: -1.6%
CCOc1ccccc1CNC(=O)c1cc(-c2ccc(Cl)s2)nc2ccccc12	inactive: -21.7%
CCn1c2ccccc2c2nnc(SCC(=O)Nc3ccccc3OC)nc21	inactive: -2.75%
CCc1ccc(NC(=O)Cn2c(=O)n(CCC(=O)N3CCc4ccccc4C3)c(=O)c3ccccc32)cc1	inactive: -6.58%
Cc1ccccc1-c1nn2c(=O)cc(CN3CCN(C(=O)/C=C/c4ccccc4)CC3)nc2s1	inactive: 0.414%
COc1ccc(-c2cc(NCc3ccc(F)cc3)n3cnnc3n2)cc1	inactive: 2.56%
O=C(Cc1ccccc1)Nc1sc2c(c1C(=O)Nc1ccccc1Cl)CCC2	inactive: 1.84%
Cc1nn(CC(=O)NCCc2ccc(Cl)cc2)c(=O)c2cc3cc(F)ccc3n12	inactive: -3.55%
Cc1ccc(NC(=O)CCc2nnc3n(CC(C)C)c(=O)c4ccccc4n23)cc1C	inactive: -0.0176%
Cc1ccc(-n2nc3c(N4CCC(C(=O)N5CCCCC5)CC4)nnc(C)c3c2C)cc1	inactive: -6.45%
COc1ccc(CNC(=O)Cn2nc(C)c3nn(-c4ccc(Cl)cc4)c(C)c3c2=O)cc1	inactive: -0.654%
CCCc1cc(N2CCN(c3cc(Cl)ccc3C)CC2)n2cnnc2n1	inactive: -4.6%
Cc1ccc2oc(C(=O)Nc3c(C(=O)Nc4ccccc4)oc4ccccc34)cc(=O)c2c1	inactive: 3.75%
O=S(=O)(c1ccccc1)c1nnn2c1nc(NCc1cccs1)c1sccc12	inactive: 1.23%
Cc1ccc(NC(=O)CCn2cccn2)cc1Cl	inactive: 0.152%
CCOc1ccc(CCNC(=O)CN2C(=O)COc3ccc(S(=O)(=O)N4CCC(C)CC4)cc32)cc1	inactive: -5.44%
COc1ccc(NC(=O)Cn2c(=O)n(-c3ccccc3)c(=O)c3c4c(sc32)CCCC4)cc1	inactive: -9.41%
Cc1cc(C)cc(Nc2cc(-c3ccccc3)nc(C)n2)c1	inactive: -15.9%
CCCCN(C)c1nnc(NC(=O)Nc2cccc(C(C)=O)c2)s1	inactive: -2.21%

SMILES	activity change, negative = inhibition
Cc1ccc(NC2=CC(c3ccccc3F)N(c3ccc(C)cc3)C2=O)cc1 (stereo not given)	inactive: 1.31%
COC(=O)c1c(NC(=O)c2cc3nc(-c4ccc(OC)cc4)cc(C(F)(F)F)n3n2)sc2c1CCCC2	inactive: -0.216%
CCOc1ccccc1NC(=O)C(Cc1ccccc1)NS(=O)(=O)c1ccc2c(c1)oc(=O)n2C (stereo not given)	inactive: -6.39%
COc1ccc(-c2cc3nc(C)c(CCC(=O)N4CCN(c5cccc(Cl)c5)CC4)c(C)n3n2)c(OC)c1	inactive: -12.4%
O=C(NCc1cccs1)c1ccc2c(c1)N(Cc1ccccc1Cl)C(=O)c1ccccc1S2	inactive: 1.6%
O=C(CN1C=NS(=O)(=O)c2ccccc21)Nc1ccc(F)cc1	inactive: -4.18%
Cc1ccccc1-c1ncnn1-c1sc2c(c1C#N)CCCCC2	inactive: 0.743%
CC(C)Cn1c(=O)c2ccccc2n2c(CCC(=O)NCc3ccccc3Cl)nnc12	inactive: 0.658%
CC(=O)NCCNC(=O)CCCc1nnc2n(C)c(=O)c3sccc3n12	inactive: -14.9%
COc1ccc(CNC(=O)c2cc3cc(C)ccc3n2C)cc1	inactive: -1.83%
CCCCN(CCCC)C(=O)CN(C)S(=O)(=O)c1ccc2c(c1)c(=O)n(C)c(=O)n2C	inactive: -13.2%
CC(Nc1ccc(-c2nc(-c3ccncc3)no2)cc1[N+](=O)[O-])c1ccccc1 (stereo not given)	inactive: 1.74%
O=C(NCc1ccccc1Br)c1ccc2nc(N3CCCCC3)sc2c1	inactive: 0.237%
Cc1sc2c(c1C)c(=O)n(CCc1ccccc1)c(=O)n2Cc1cccc(F)c1	inactive: -2.75%
Cc1ccc(-n2c(=O)c3c(c4cc(C)ccc4n3C)n(CC(=O)NCc3ccccc3Cl)c2=O)cc1	inactive: -2.38%
CCOC(=O)c1ccc(CN(Cc2ccccc2)S(=O)(=O)c2ccc(C)cc2)cc1	inactive: 2.09%
COc1ccc(CCC(=O)NC2CC(=O)N(c3ccc(C)cc3)C2)cc1 (stereo not given)	inactive: 0.052%
CCCCOC(=O)c1ccc(Nc2ncnc3[nH]ncc23)cc1	inactive: -22.6%
COc1ccc2oc(=O)cc(CN3CCN(c4ccc(F)cc4)CC3)c2c1	inactive: -6.74%
CCCCNC(=O)C(CC)Sc1nnc(-c2cccc(F)c2)c(-c2cccc(F)c2)n1 (stereo not given)	inactive: -5.66%
Cc1cccc(C(=O)Nc2ccc(-c3nc4ccccc4s3)cc2Cl)c1	inactive: -0.19%
Cc1cc(C)cc(N2CC(c3nc(-c4ccccc4C)no3)CC2=O)c1 (stereo not given)	inactive: -9.51%
CC(=O)Nc1c(C)nn(-c2ccccc2)c1N1CCC(C(=O)NCc2ccc(Cl)cc2)CC1	inactive: 0%
CCOC(=O)c1ccc(NC(=O)CN(c2ccc(C)cc2)S(=O)(=O)c2c(C)noc2C)cc1	inactive: 0.993%

SMILES	activity change, negative = inhibition
Cc1nc2c(C(=O)NCCc3ccc(Cl)cc3)cnn2c(C)c1Cc1c(F)cccc1Cl	inactive: 11.2%
Cc1cccc(NC(=O)Cn2c(=O)n(-c3ccccc3Cl)c(=O)c3c(C)c(C(=O)N(C)C)sc32)c1	inactive: -2.31%
Cc1ccccc1CNC(=O)C(C)n1nc(C)n2c(cc3occc32)c1=O (stereo not given)	inactive: 0.867%
COc1ccc(CC(=O)Nc2nc3c(s2)CC(C(C)(C)C)CC3)cc1 (stereo not given)	inactive: -1.82%
Cc1ccc(NC(=O)CN2C(=O)CCSc3ccc(S(=O)(=O)N4CCCC4)cc32)cc1	inactive: 1.16%
COc1ccc(NC(=O)C2=CC(c3cccs3)=NS(=O)(=O)N2C)cc1	inactive: -10.4%
CCc1ccc(-c2nc(CSCC(=O)NCc3ccccc3OC)c(C)o2)cc1	inactive: -13.5%
Cc1ccc(-c2nc3c(c(SCC(=O)N4CCCCC4)n2)Cc2cc(C)ccc2O3)cc1	inactive: 1.12%
CCn1c(CNC(=O)c2ccc(OC)cc2)nnc1SCC(=O)Nc1ccc(OC)cc1	inactive: -3.65%
Cc1nn(Cc2noc(C(=O)NCc3ccc(F)cc3)n2)c(C)c1Br	inactive: 2.89%
O=C(NCCc1ccccc1)c1ccc2c(c1)N(Cc1ccccc1Cl)C(=O)c1ccccc1S2	inactive: 2.39%
COc1ccc(-c2nc3scc(CCNS(=O)(=O)c4ccc(F)cc4F)n3n2)cc1OC	inactive: -16.1%
COc1ccccc1CNC(=O)C(Cc1ccccc1)NS(=O)(=O)c1ccc2c(c1)oc(=O)n2C (stereo not given)	inactive: 0.128%
CCOC(=O)c1cccc(NC(=O)CSc2ncc3c(n2)-c2ccccc2N(C)S3(=O)=O)c1	inactive: 0%
CCOc1ccc(CC(=O)Nc2ccc3nc(N4CCCCC4)cc(C)c3c2)cc1OCC	inactive: -8%
O=C1CC(c2nc3ccccc3n2CCCCOc2ccccc2)CN1c1ccccc1Cl (stereo not given)	inactive: -1.87%
CC1CCCCN1Cc1c(O)ccc2c(=O)c(-c3cccc(Cl)c3)c(C(F)(F)F)oc12 (stereo not given)	inactive: 2.44%
CCc1nnc(NC(=O)CSc2nc3c([nH]c4ccccc43)c(=O)n2-c2cc(C)cc(C)c2)s1	inactive: 0.58%
Clc1cccc(CNc2ncnc3c2nc2n3CCCC2)c1	inactive: 3.53%
Cc1nnc(SCc2cc(=O)n3c(C)cccc3n2)s1	inactive: -7.48%
COc1ccc(-n2ncc3c(N4CCN(c5cccc(C)c5)C(C)C4)ncnc32)cc1 (stereo not given)	inactive: -4.42%
CCOc1ccc(Cn2c(=O)oc3ccccc32)cc1	inactive: -6.61%
Cc1ccc(-c2noc(COc3ccc(Br)c(C)c3)n2)cc1	inactive: 2.04%
